Measured values taken from patent US12421282B2, “Compositions and methods for the treatment of metabolic and liver disorders” (priority 2021, dated 2025).
Not every detail of the peptide structures is certain; ends, links or a residue may be inferred. At least one structure is not confirmed: it was looked up by name or label, or the drawing left a doubt. Some entries repeat one wording, which the source may state once for all of them. *1 amine or outer side, *2 acyl side, *3 side chain or, on linkers, in order; H or OH if unused. Where a SMILES comes first, the peptide text is derived from it. Side-chain parts run from the residue outwards. [ ]: non-standard residue; d: D form. The star is where a group is joined. Nonadecanoyl(19-PO3H2) = O=C(CCCCCCCCCCCCCCCCCCP(=O)(O)O)*; γGlu = O=C(O)[C@H](CCC(=O)[*:2])N[*:1]; AEEA = NCCOCCOCC(=O)O; Aib = CC(C)(N)C(=O)O

Assays:
[1] = test system: NASH induced in mice by Gubra amylin NASH (GAN) diet; assay: Biological effects in GAN diet-induced NASH mice; format: in vivo; conditions: 10 nmol/kg, after two weeks
[2] = biological target: human recombinant GLP-1 receptor (Homo sapiens, UniProt P43220); assay: TagLite binding assay, GLP-1 receptor, without and with 2% HSA; conditions: IC50 with 2% HSA / IC50 with no HSA
Text: (§1) Binding data for Compounds 15-25, for two human recombinant G protein coupled receptors, GLP-1 and GIP, was obtained using […]® binding assay and Epics Therapeutics cell lines. The binding assay was repeated in the presence of 2% human serum albumin (HSA). Compounds 16, 21, and 22 have an HSA ratio for the GLP-1 receptor of 7.1, 7.6, and 7.8, respectively. Compounds 15, 18, and 23 have an HSA ratio for the GIP receptor of 7.3, 4.3, and 6.4, respectively. A lower HSA ratio indicates greater binding affinity for the receptor than for albumin when compared to a compound with a greater HSA ratio.

[3] = biological target: T1, human recombinant GIP receptor (Homo sapiens, UniProt P48546); assay: TagLite binding assay, GIP receptor, without and with 2% HSA; conditions: IC50 with 2% HSA / IC50 with no HSA
T1 sequence (P48546 22-466): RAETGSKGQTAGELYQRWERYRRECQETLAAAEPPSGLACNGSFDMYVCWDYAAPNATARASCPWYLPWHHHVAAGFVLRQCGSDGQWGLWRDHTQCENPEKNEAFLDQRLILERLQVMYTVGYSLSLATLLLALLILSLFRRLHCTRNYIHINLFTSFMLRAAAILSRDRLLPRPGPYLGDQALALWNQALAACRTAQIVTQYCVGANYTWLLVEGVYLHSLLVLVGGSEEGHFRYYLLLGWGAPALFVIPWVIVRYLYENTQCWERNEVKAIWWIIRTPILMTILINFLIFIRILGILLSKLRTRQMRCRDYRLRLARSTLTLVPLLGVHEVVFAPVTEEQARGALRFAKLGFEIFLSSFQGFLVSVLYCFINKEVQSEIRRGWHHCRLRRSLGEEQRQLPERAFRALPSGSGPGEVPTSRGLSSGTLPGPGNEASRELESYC
Text: as §1

Chain of human recombinant GLP-1 receptor (P43220 24-463): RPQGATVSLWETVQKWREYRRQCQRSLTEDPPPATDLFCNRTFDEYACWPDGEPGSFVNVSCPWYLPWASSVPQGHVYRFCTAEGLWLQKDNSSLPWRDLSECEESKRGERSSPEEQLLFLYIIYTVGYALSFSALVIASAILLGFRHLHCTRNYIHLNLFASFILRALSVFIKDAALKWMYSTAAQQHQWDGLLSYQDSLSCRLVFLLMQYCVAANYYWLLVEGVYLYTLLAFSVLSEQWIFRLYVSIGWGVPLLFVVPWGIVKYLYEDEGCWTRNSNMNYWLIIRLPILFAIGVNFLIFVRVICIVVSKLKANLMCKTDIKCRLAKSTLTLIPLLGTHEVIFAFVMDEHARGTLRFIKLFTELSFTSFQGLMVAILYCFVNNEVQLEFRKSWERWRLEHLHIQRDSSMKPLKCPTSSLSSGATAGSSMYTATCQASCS

CC[C@H](C)[C@H](NC(=O)[C@H](CCCCN)NC(=O)[C@H](CC(=O)O)NC(=O)[C@H](CC(C)C)NC(=O)[C@H](Cc1ccccc1)NC(=O)[C@@H](NC(=O)[C@H](CO)NC(=O)[C@H](Cc1ccc(O)cc1)NC(=O)[C@H](CC(=O)O)NC(=O)[C@H](CO)NC(=O)[C@@H](NC(=O)[C@H](Cc1ccccc1)NC(=O)[C@@H](NC(=O)CNC(=O)[C@H](CCC(=O)O)NC(=O)C(C)(C)NC(=O)[C@@H](N)Cc1ccc(O)cc1)[C@@H](C)O)[C@@H](C)O)[C@@H](C)CC)C(=O)N[C@@H](C)C(=O)N[C@@H](CCC(N)=O)C(=O)N[C@@H](CCCCNC(=O)COCCOCCNC(=O)COCCOCCNC(=O)CC[C@H](NC(=O)CCCCCCCCCCCCCCCCCCP(=O)(O)O)C(=O)O)C(=O)N[C@@H](C)C(=O)N[C@@H](Cc1ccccc1)C(=O)N[C@H](C(=O)N[C@@H](CC(N)=O)C(=O)N[C@@H](Cc1c[nH]c2ccccc12)C(=O)N[C@@H](CC(C)C)C(=O)N[C@H](C(=O)N[C@@H](C)C(=O)NCC(=O)NCC(=O)N1CCC[C@H]1C(=O)N[C@@H](CO)C(=O)N[C@@H](CO)C(=O)NCC(=O)N[C@@H](C)C(=O)N1CCC[C@H]1C(=O)N1CCC[C@H]1C(=O)N1CCC[C@H]1C(=O)N[C@@H](CO)C(N)=O)[C@@H](C)CC)C(C)C [Compound 21] (H-Y[Aib]EGTFTSDYSIFLDKIAQK([AEEA-AEEA-γGlu-Nonadecanoyl(19-PO3H2)])AFVNWLIAGGPSSGAPPPS-NH2)
total liver lipids as compared to tirzepatide or vehicle (FIG. 2) [1]: stastistically significantly lower total liver lipids than tirzepatide
GLP-1 receptor Ratio of HSA/No HSA [2]: 7.6
GIP receptor Ratio of HSA/No HSA [3]: 9.4
